Common to all, as to assay: cell-based or functional assay
The target of assay [1] is T1, Recombinant mouse NGF (R&D Systems) (mouse, UniProt P01139 122-241).
In assay [2] the target is Recombinant human NGF (Sigma) (human, UniProt P01138 partial chain).
Assay [3] concerns the target T1, Recombinant mouse NGF (R&D Systems). This is another data set of the same source.
Assay [4] deals with Recombinant human TNFα (R&D Systems) (human, UniProt P01375 partial chain).
Chain of UniProt P01375 (P01375 77-233 limits assumed): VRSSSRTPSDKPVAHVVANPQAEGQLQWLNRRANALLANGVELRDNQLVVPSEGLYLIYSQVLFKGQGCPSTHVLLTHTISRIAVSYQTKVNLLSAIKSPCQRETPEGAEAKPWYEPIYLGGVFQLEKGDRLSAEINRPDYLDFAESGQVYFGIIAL

T1 sequence (P01139 122-241 limits assumed): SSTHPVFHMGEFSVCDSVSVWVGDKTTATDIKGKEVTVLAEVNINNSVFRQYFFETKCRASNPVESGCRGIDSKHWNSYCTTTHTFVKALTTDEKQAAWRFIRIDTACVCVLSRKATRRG
Chain of UniProt P01138 (P01138 122-241 limits assumed): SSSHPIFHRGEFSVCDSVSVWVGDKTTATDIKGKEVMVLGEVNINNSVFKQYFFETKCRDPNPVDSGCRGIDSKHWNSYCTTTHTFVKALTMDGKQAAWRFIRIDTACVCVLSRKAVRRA

B1: TNFR2-Fc_VH #4 (Fc fusion)
chain: LPAQVAFTPYAPEPGSTCRLREYYDQTAQMCCSKCSPGQHAKVFCTKTSDTVCDSCEDSTYTQLWNWVPECLSCGSRCSSDQVETQACTREQNRICTCRPGWYCALSKQEGCRLCAPLRKCRPGFGVARPGTETSDVVCKPCAPGTFSNTTSSTDICRPHQICNVVAIPGNASMDAVCTSTSPTRSMAPGAVHLPQPVSTRSQHTQPTPEPSTAPSTSFLLPMGPSPPAEGSTGD[human IgG1 Fc not shown]GGGGSGGGGSQVQLVQSGAEVKKPGSSVKVSCKASGGTFSTYGISWVRQAPGQGLEWMGGIIPIFDTGNSAQSFQGRVTITADESTSTAYMELSSLRSEDTAVYYCARSSRIYDLNPSLTAYYDMDVWGQGTMVTVSSGGGGSGGGGSGGGGSAQSVLTQPPSVSAAPGQKVTISCSGSSSNIGNNYVSWYQQLPGTAPKLLIYDNNKRPSGIPDRFSGSKSGTSATLGITGLQTGDEADYYCGTWDSSLSAWVFGGGTKLTVL
For the molecule B1, the “IC50 (read off the curve)” value in assay [1] is approximately 100 pM; in assay [2] it was approximately 500 pM.

B2: TNFR2-Fc_varB (Fc fusion)
chain: LPAQVAFTPYAPEPGSTCRLREYYDQTAQMCCSKCSPGQHAKVFCTKTSDTVCDSCEDSTYTQLWNWVPECLSCGSRCSSDQVETQACTREQNRICTCRPGWYCALSKQEGCRLCAPLRKCRPGFGVARPGTETSDVVCKPCAPGTFSNTTSSTDICRPHQICNVVAIPGNASMDAVCTSTSPTRSMAPGAVHLPQPVSTRSQHTQPTPEPSTAPSTSFLLPMGPSPPAEGSTGD[human IgG1 Fc not shown]GGGGSGGGGSQVQLVQSGAEVKKPGSSVKVSCKASGGTFSTYGISWVRQAPGQCLEWMGGIIPIFDTGNSAQSFQGRVTITADESTSTAYMELSSLRSEDTAVYYCARSSRIYDLNPSLTAYYDMDVWGQGTMVTVSSGGGGSGGGGSGGGGSGGGGSQSVLTQPPSVSAAPGQKVTISCSGSSSNIGNNYVSWYQQLPGTAPKLLIYDNNKRPSGIPDRFSGSKSGTSATLGITGLQTGDEADYYCGTWDSSLSAWVFGCGTKLTVL
As to B2, the “IC50, inhibition of murine NGF-induced TF-1 proliferation” value in assay [3] is 0.364 µg/mL. In assay [4], the “IC50, inhibition of TNFα-induced Caspase 3 activity in U937 cells” value stood at 165 pM.

For the origin of these results see patent US20240026036A1 (AstraZeneca / MedImmune, published 2024).
